# Assay results as given in PubChem BioAssay AID488969 (Vanderbilt High Throughput Screening Facility, 2010).
# In all, about 110,000 compounds were measured (“z-score”: median about -0.1, highest 2% from about 2 on). The list shows a part of the results. Activity calls are given as the source filed them.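 The calls were made as follows: active = z-score in the third read window above 3 or below -3; inactive = the rest.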
# Target: Metabotropic glutamate receptor 8 (Rattus norvegicus) (UniProt P70579)
# Experiment: rat mGluR8 modulators via GIRK flux, primary screen, cell-based, thallium flux, HTS (AID 488969)
# Conditions: HEK293 rat mGluR8, GIRK (G protein-gated inwardly rectifying potassium channel) thallium flux, FluoZin2; at 10 µM; stronger effect = higher value; submaximal glutamate (EC20) added with thallium
# UniProt P70579, sequence (P70579 whole entry, looked up): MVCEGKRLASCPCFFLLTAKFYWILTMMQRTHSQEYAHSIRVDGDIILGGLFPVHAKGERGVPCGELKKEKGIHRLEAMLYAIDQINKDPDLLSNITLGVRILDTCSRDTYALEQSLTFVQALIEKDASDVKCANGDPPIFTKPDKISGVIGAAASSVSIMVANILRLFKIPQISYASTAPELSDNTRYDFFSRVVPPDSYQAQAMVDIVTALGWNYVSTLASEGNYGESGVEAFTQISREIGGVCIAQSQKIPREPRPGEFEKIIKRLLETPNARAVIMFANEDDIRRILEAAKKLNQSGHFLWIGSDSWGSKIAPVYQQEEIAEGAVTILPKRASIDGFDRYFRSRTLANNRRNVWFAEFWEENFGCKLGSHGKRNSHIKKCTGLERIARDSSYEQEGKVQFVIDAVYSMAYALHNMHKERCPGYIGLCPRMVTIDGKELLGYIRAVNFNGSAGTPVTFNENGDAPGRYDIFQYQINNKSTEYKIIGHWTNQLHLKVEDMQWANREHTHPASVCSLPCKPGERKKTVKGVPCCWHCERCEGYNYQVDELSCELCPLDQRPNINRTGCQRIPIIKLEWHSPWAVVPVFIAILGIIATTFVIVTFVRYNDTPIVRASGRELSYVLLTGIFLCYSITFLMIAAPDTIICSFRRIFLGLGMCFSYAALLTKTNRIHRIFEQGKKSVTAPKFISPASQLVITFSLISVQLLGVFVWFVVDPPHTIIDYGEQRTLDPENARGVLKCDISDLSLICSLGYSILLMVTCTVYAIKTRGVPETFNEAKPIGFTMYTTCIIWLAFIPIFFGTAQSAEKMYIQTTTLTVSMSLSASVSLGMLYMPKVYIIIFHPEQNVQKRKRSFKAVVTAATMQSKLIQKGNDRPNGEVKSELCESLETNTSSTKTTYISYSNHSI
row,SMILES,z-score
1,N=C1C(c2nc(-c3ccc(F)cc3)cs2)=C(O)CN1Cc1ccc(Cl)cc1,0.268
2,CCc1ccc(OCCCOc2ccc(C=O)cc2)cc1,0.232
3,Cc1cccc(OCC(=O)O/N=C(\N)c2ccc(Cl)cc2)c1,0.515
4,Fc1c(F)c(C(F)(F)F)c(F)c(F)c1N/N=C\c1cccs1,0.316
5,Cc1nc2ccc(F)cc2cc1C(=O)NCc1ccco1,-0.0284
6,CCSc1nnc(NC(=O)CSc2nc3c(cc2C#N)CCCC3)s1,-0.18
7,CS(=O)(=O)c1ccc(N2CCN(C3CC(=O)NC3=O)CC2)cc1 (stereo not drawn),0.162
8,O=S(=O)(c1cc(Cl)ccc1Cl)N1CC2CCCN2c2ccc(C(F)(F)F)cc21 (stereo not drawn),-1.18
9,COc1ccccc1OC(=O)c1ccc2nsnc2c1,-0.439
10,Cn1c(CCNC(=O)c2ccc(Cl)cc2)n[nH]c1=S,-0.159
11,COc1ccc(/C=N/NC(=O)c2[nH]ncc2Br)c(OC)c1,-0.26
12,Cc1cnc(NC(=O)c2cc3c(s2)CCCC3)s1,0.0107
13,CN1C(=O)CCC1(O)c1ccccc1 (stereo not drawn),-0.249
14,Cc1ccc(S(=O)(=O)N2C(=O)CCC2C(=O)Nn2cnnc2)cc1 (stereo not drawn),-0.0708
15,CC(C)(C)C1CCc2onc(C(=O)NCc3ccc(F)cc3)c2C1 (stereo not drawn),-0.198
16,O=C(CNC(=O)Cc1ccccc1)NCC(=O)OCc1ccc(C(=O)c2ccccc2)cc1,-0.175
17,c1coc(-c2nc3nc4ccccc4nc3n2CC2CCCO2)c1 (stereo not drawn),-0.0828
18,Cc1ccc(-n2ncc3c(=O)n(CC(=O)N4CCN(c5ccccc5F)CC4)cnc32)cc1C,-1.24
19,CCOC(=O)c1nn(-c2cccc(C)c2)c2nc(-c3ccccc3)c(C#N)c(=O)n12,-0.167
20,CCN(CC)S(=O)(=O)c1cccc(C(=O)NN2Cc3ccccc3C2=N)c1,-0.144
21,CCOC(=O)C1=C(C)S/C(=C\N(C)C)C1=O,-0.721
22,O=C(CCC(=O)c1cccs1)Nc1ccccc1F,0.0892
23,CC1(C)Cc2ccccc2-c2nnnn21,0.437

row,SMILES,z-score
1,O=C(COc1ccccc1Cl)NCc1ccco1,0.603
2,Nc1nc(NCc2c(F)cccc2Cl)nn1-c1ccccc1,-0.142
3,O=C(c1ccco1)N1CCN(C(=O)c2[nH]ncc2[N+](=O)[O-])CC1,-0.0249
4,O=C(CSc1nnc(CNC(=O)c2ccccc2F)o1)c1ccccc1,1.07
5,Cc1ccccc1NC(=O)c1cn(-c2ccccc2)nc1-c1ccccc1,0.316
6,CC(NC(=O)CSc1nnc(-c2cccc(S(=O)(=O)N3CCCCC3)c2)o1)C12CC3CC(CC(C3)C1)C2 (stereo not drawn),-0.897
7,O=C(NCCCNc1ccc(C(F)(F)F)cc1[N+](=O)[O-])c1cc(F)c(F)cc1Cl,-0.349
8,COc1cc(/C=N/O)cc(Br)c1OC,-0.12
9,CN1C=CC2=C(C#N)C(N)C(C#N)(C#N)C(c3ccccc3)C2C1 (stereo not drawn),-2.28
10,N#C/C(=C/c1ccc(OCc2ccccc2)cc1)C(=O)NC1CCCCC1,0.0182
11,CCCNC(=O)Cn1cnc([N+](=O)[O-])n1,0.245
12,Cc1nnc(NC(=O)c2ccccc2F)s1,0.0729
13,Nc1nonc1C(=Nc1ccc(Br)cc1)NO,0.127
14,COC(=O)Cc1c(C)c2c(O)cc(C)cc2oc1=O,-0.16
15,O=C(Cc1n[nH]c(=O)[nH]c1=O)N/N=C/c1cccc(O)c1,-0.575
16,CC(C)NC(=O)CC(c1ccccc1)c1cc(Br)ccc1O (stereo not drawn),-0.268
17,O=S(=O)(/N=C(/Nc1ccccn1)c1ccccc1)c1ccc(Cl)cc1,0.031
18,Cc1cc(NC(=O)CN2C(=O)NC3(CCCCC3C)C2=O)no1 (stereo not drawn),0.169
19,Cc1ccc(C)n1-c1ccc(C(=O)O)cc1,-1.12
20,CC(C)(C)C1CCC(=NNc2ccc(S(N)(=O)=O)cc2[N+](=O)[O-])CC1 (stereo not drawn),-0.138
21,O=C(/C=C/c1ncc(C(F)(F)F)cc1Cl)OCc1ccccc1,-0.0986
22,Cn1cnnc1SCC(=O)NCc1cccc(C(F)(F)F)c1,0.0117
23,COc1cc(/C=C/c2nc(N)nc(-c3ccccc3O)n2)cc(OC)c1OC,-0.115

row,SMILES,z-score
1,Cc1cc(OCC(O)CN2CCN(CCO)CC2)ccc1C(C)C (stereo not drawn),-0.0316
2,COc1cc(C(=S)N2CCOCC2)ccc1OS(=O)(=O)c1ccc(NC(C)=O)cc1,-0.421
3,O=[N+]([O-])c1ccc(S(=O)(=O)N/N=C/c2cccs2)cc1,-0.273
4,C/C(=N\NC(=O)Nc1ccccc1)c1ccc2ccccc2c1,-0.112
5,CCCNC(=O)NC(=O)COC(=O)c1cccc(NS(=O)(=O)c2ccc(F)c(F)c2)c1,0.299
6,Clc1cc2nc3ccccn3c2cc1Cl,1.18
7,Cc1cccc(N2CCN(C(c3cccs3)c3nnnn3C(C)(C)C)CC2)c1C (stereo not drawn),0.0116
8,Cc1nnc2sc(-c3ccc(NC(=O)c4ccc(-c5ccc(Br)cc5)o4)cc3)nn12,0.0525
9,Cn1c(CCNC(=O)c2ccc(Cl)c(Cl)c2)nnc1SCc1ccc(Cl)c(Cl)c1,-0.0689
10,CCOC(=O)c1sc(NC(=O)CCCCl)nc1C,-0.167
11,CCC1(CC)C(=O)NC(=O)NC1=Nc1cccc(OC)c1,-0.0162
12,COc1ccc(CCC(=O)Nc2nc3ccccc3[nH]2)cc1,-0.509
13,COc1ccc(C(=O)NNC(=S)NC(=O)c2ccccc2[N+](=O)[O-])cc1,-0.094
14,Cc1cc(C)cc(NC(=O)c2cccn2-c2ncc(C(F)(F)F)cc2Cl)c1,-0.28
15,CCCCOP(=O)(OCCCC)C(Nc1ccccc1)c1ccc2c(c1)OCO2 (stereo not drawn),0.0364
16,C=CCSc1nc(C)c2cc(C)cc(C)c2n1,-0.597
17,CCc1c(C)nc2ncnn2c1NCCc1ccc(OC)cc1,-0.254
18,c1ccc2c(Cn3ccnc3)c[nH]c2c1,-0.416
19,O=C(c1ccccc1)N1CCc2ccccc21,0.518
20,Cc1cc(C)cc(-n2nnnc2SCC(=O)Nc2nc(-c3ccc(F)cc3)cs2)c1,-0.233
21,O=C(O)C1CC=CCC1C(=O)NCc1ccc2c(c1)OCO2 (stereo not drawn),-0.618
22,N#Cc1ccc(NC(=O)CN2C(=O)NC(Cc3ccccc3)C2=O)cc1 (stereo not drawn),-0.0901
23,CC1(C)Cc2c(sc3nc(-c4ccccc4)n(N)c(=O)c23)CO1,0.829

row,SMILES,z-score
1,O=C(c1cnc2n(c1=O)CCS2)N1CCN(C(c2ccccc2)c2ccc(Cl)cc2)CC1 (stereo not drawn),-0.611
2,Cc1csc(=NC(=O)c2ccccc2)n1CCO,-0.216
3,CC12CCC(C(=O)N(CSC(=S)N/N=C\c3ccccc3)C1=O)C2(C)C (stereo not drawn),active: 16.4
4,CCCc1cc(C(=O)Nc2sc3c(c2C#N)CCC3)no1,2.21
5,CCN(CC(=O)NC(C)C)C(=O)C(CCSC)NC(=O)c1cccc(C)c1 (stereo not drawn),-0.0113
6,O=C(NCCN1C(=O)S/C(=C\c2ccc(F)cc2)C1=O)c1cccc(S(=O)(=O)N2CCOCC2)c1,-0.00437
7,Cc1ccccc1OCC(=O)Nc1cccc2nsnc12,0.348
8,Cc1ccc(C(=O)NNC(=S)Nc2cccc3ccccc23)s1,1.65
9,Cc1ccc(NC(=O)CSCC(=O)N2CCOCC2)cc1,0.116
10,COc1ccc(Cl)cc1-c1nc(N)nc(N(C)C)n1,-0.0414
11,Clc1ccc(-c2nc3ccccc3nc2-c2ccccc2)cc1,-1.47
12,O=C(Cc1ccc([N+](=O)[O-])cc1)N1CCN=C1SCc1ccccc1,-0.118
13,COc1ccc(C(CCN(Cc2ccc(OC)c(OC)c2)C(C)=O)c2ccccc2)cc1 (stereo not drawn),-0.175
14,Cc1nn(-c2ncc(C(F)(F)F)cc2Cl)c(=O)n1-c1ccccc1Cl,-0.751
15,CCOC(=O)c1c(NC(=O)COc2ncnc3sccc23)sc2c1CCC2,-0.175
16,Cc1cc(Br)ccc1OCC(=O)N(Cc1nc(-c2ccccc2)no1)C(C)C,0.16
17,Cc1nn(CCC(N)=O)c2nc(-c3cccs3)cc(C(F)(F)F)c12,-0.283
18,Cc1ccc(-n2c(Cc3cccn3C)nnc2SCC(=O)N2CCN(c3ccccc3)CC2)cc1,-0.835
19,CCN(C(=O)CSc1nc2cc(C(F)(F)F)ccc2n1Cc1ccccc1)C1CCS(=O)(=O)C1 (stereo not drawn),-0.724
20,O=C(O)c1cc(Nc2nc(N3CCOCC3)nc(N3CCOCC3)n2)ccc1Cl,-0.694
21,CCCC1=C(C(=O)OCC)C(/C=C/c2ccccc2)n2ncnc2N1 (stereo not drawn),-0.104
22,CCOC(=O)c1c(N)sc2c1CCC(CC)C2 (stereo not drawn),0.0842
23,CCOc1ccc(NC(=O)CN(c2cccc(C(F)(F)F)c2)S(C)(=O)=O)cc1,1.26

row,SMILES,z-score
1,CC[n+]1c(S(=O)(=O)[O-])ccc2ccc(C)cc21,-0.0122
2,COc1cc(C(=O)Nc2ccc3c(c2)OCCO3)c(-n2cnnn2)cc1OC,-0.262
3,Nc1ccc(Oc2ccc3nc(-c4ccccc4)c(-c4ccc([N+](=O)[O-])cc4)nc3c2)cc1,0.524
4,CCN(CC)S(=O)(=O)c1ccc2nc(COC(=O)c3n[nH]c4ccccc34)[nH]c2c1,-0.13
5,COc1ccc(OC)c(S(=O)(=O)NCc2cn3c(C)csc3n2)c1,-0.389
6,COc1ccc(N=C2SC(C(N)=O)CC(=O)N2CCc2ccc(OC)c(OC)c2)cc1 (stereo not drawn),-0.154
7,Nc1nonc1C(=O)NCCNS(=O)(=O)c1ccc(Br)cc1,0.00497
8,COc1cccc(-n2sc3c(c2=S)-c2cc(OC)ccc2NC3(C)C)c1,-0.0597
9,Cc1cc(C)cc(NC(=O)c2cccc(NC(=O)C3C4CC5OC(=O)C3C5C4)c2)c1 (stereo not drawn),-0.409
10,Cc1cc(C2(c3ccc(O)c(C)c3)C(=O)Nc3ccccc32)ccc1O,-0.184
11,O=C1c2ccccc2NC(c2ccco2)N1O (stereo not drawn),-0.422
12,Cc1cccc(C)c1NC(=O)COC(=O)c1cccc2c1C(=O)c1ccccc1C2=O,0.188
13,O=C(NN1C(=O)c2ccccc2C1=O)C1C2CCCCC21 (stereo not drawn),-0.161
14,O=C(CSc1nnc(NC(=O)c2ccco2)s1)NC1CCCC1,-0.136
15,O=C1C=C(NCc2ccncc2)CC(c2ccccc2)C1 (stereo not drawn),-0.117
16,O=S(=O)(c1cccc(-c2nc3ccccc3s2)c1)N1CCOCC1,-0.153
17,c1ccc(CSCc2cn3ccsc3n2)cc1,-0.197
18,Cc1nc(NCCc2ccc(S(N)(=O)=O)cc2)c2c3c(sc2n1)CCC3,-0.34
19,CCCCn1nc2cc(C(=O)NC[C@@H]3CCCO3)ccc2c1OCC,-0.052
20,NC(=O)c1c(-c2cccs2)csc1N,-0.161
21,Cc1onc(-c2ccccc2)c1C(=O)N1CCN(C(=O)c2ccco2)CC1,0.214
